This passage reports binding signal results from paper PMC10668032.

The other results are listed elsewhere or left out. At the low end of the ranking the order means little.

The target in the test is SIX1 homeodomain (reference allele) (UniProt Q15475). The test is described as follows: universal protein binding microarray. The conditions noted are these: Universal all-10-mer PBM (8x60K, AMADID 030236), 300 nM GST-tagged protein, Alexa Fluor 488 anti-GST; buffer, salt, pH and temperature not stated; high values mean tight binding; most listed sequences are background and not binding sites; double strand, one strand shown.
As for ATGGTTCC, the binding signal is -0.0625 E-score.
Take CGAGTCAG: the binding signal was -0.245 E-score.
For AGGTCGGG the value was 0.0285 E-score.
Then ATGTTATC, with 0.13 E-score; and ATACACAC, with 0.249 E-score; and AAAGGCCG, with 0.00362 E-score.
For CGGCTTCC the value was -0.0221 E-score.
On to CTCCTCTA, for which the binding signal worked out at 0.0736 E-score.
For AATCCAGG the value was 0.138 E-score; for CCTCCAAC, -0.0743 E-score; for GAGCCAAA, -0.0853 E-score.
For CCGCTCTC the value was -0.21 E-score; for CAAAGGGC, -0.182 E-score; for GAGTGCCA, -0.326 E-score.
Consider GCAGAGAC, for which the binding signal is -0.238 E-score.
In the case of CCTCGATC, the binding signal worked out at 0.145 E-score.
Then CTAAACAG, with -0.164 E-score.
Then CGGAGCAG, with -0.12 E-score; and CTTCTGGA, with -0.055 E-score.
Then CCCGGCGG, with 0.0414 E-score.
Consider AGGGAAGC, for which the binding signal was -0.184 E-score.
For GCAAAAAC the value was -0.168 E-score; for AAGGTAAA, -0.0296 E-score; for AATTTAAT, -0.167 E-score.
For CAACCATG the value was -0.13 E-score; for ACTTGGAT, 0.193 E-score; for AGGAAAGC, -0.253 E-score.
For CTGAGCGA the value was -0.00364 E-score.
As for CATAGACA, the binding signal was 0.00346 E-score.
Then GAAATGAA, with -0.072 E-score; and CTTCCAGC, with -0.156 E-score.
For AAAGAAAT the value was -0.254 E-score.
For ATTACTAA the value was 0.0066 E-score; for CGAGTGCG, -0.171 E-score; for CTGTAGGA, -0.086 E-score.
Turning to CCGAACCG, the binding signal was determined as 0.0063 E-score.
For GAGTCGCA the value was -0.21 E-score; for ATCCAGTC, 0.179 E-score.
For ACCAAGAG the value was 0.0644 E-score; for ATAGGCGA, 0.103 E-score.
Then CCTGCCGC, with -0.301 E-score; and TACAGCAA, with -0.0191 E-score; and GAAGATGC, with -0.0743 E-score.
With CGGTCCAC, the binding signal was -0.268 E-score.
Then GAGTCGAA, with 0.0498 E-score.
Then CCACTGAG, with 0.0813 E-score; and GGGAGGAA, with 0.0563 E-score; and CTTGTATA, with 0.213 E-score.
For CTCTCGGA the value was 0.0874 E-score.
For the sequence CATAAGCG, the binding signal was -0.0467 E-score.
For the sequence CTCCGCCA, the binding signal was -0.131 E-score.
For GCACCTCC the value was -0.303 E-score.
Then CAACTGTG, with -0.178 E-score; and ACGCCTCA, with -0.0309 E-score; and ACAGCTCC, with -0.079 E-score.
For AGCCCCGG the value was -0.0284 E-score.
For the sequence CTAACCGA, the binding signal was -0.00465 E-score.
Then ATTTGAGC, with -0.0406 E-score; and ATACTCTA, with 0.268 E-score.
For GAGTTCGA the value was -0.195 E-score; for CTGTCACA, -0.155 E-score; for ATCAGCCC, 0.308 E-score.
Then ATTCATGA, with 0.017 E-score.
Take AGGCTTAG: the binding signal was 0.00232 E-score.
Consider CTCAACAA, for which the binding signal was -0.0589 E-score.
Then GGTCGGGA, with 0.117 E-score; and ATAGCCGG, with 0.225 E-score.
For CCCGGTAC the value was 0.0492 E-score.
Then GTTGGGGA, with 0.126 E-score.
Take CTACCGAG: the binding signal is -0.061 E-score.
ACCCCACT: the binding signal is 0.13 E-score.
For TACGTTCA the value was -0.0582 E-score; for CTGTCGAA, -0.195 E-score.
As to GTTGTTCA, the binding signal is -0.195 E-score.
AGGAGAGA: the binding signal was -0.046 E-score.
For ACTGTTCT the value was -0.0581 E-score.
Then ATATCACG, with 0.456 E-score.
Take CGCAATAA: the binding signal was 0.066 E-score.
Turning to GTATTGCA, the binding signal stood at 0.169 E-score.
For ACCGCTTG the value was -0.0884 E-score; for AGATAAAC, 0.0448 E-score; for CTCCACAG, 0.0465 E-score.
Then CCTCGCGC, with -0.155 E-score.
For GAGGGGCA the value was -0.019 E-score.
With ATCTCGAG, the binding signal stood at 0.215 E-score.
Regarding CAGCCGGC, the binding signal was -0.181 E-score.
Then CACTGCGA, with -0.116 E-score; and AACGCATT, with -0.124 E-score; and CTGAAGTA, with -0.114 E-score.
For CTCACTAA the value was -0.0391 E-score; for AGAGGGTC, -0.15 E-score.
For AACCCAAG the value was -0.00344 E-score.
CAAACGAC: the binding signal was -0.0305 E-score.
Regarding AGAGGTTG, the binding signal is -0.212 E-score.
For CGCCACTC the value was -0.129 E-score.
For GACATGAC the value was -0.117 E-score; for AACCGAGT, -0.0956 E-score; for AAAGAATT, -0.199 E-score.
For GGGGCCAC the value was -0.0409 E-score.
Turning to CCATAGTA, the binding signal is -0.0398 E-score.
Then AGCTACTA, with 0.0284 E-score; and ACAAGCCC, with -0.19 E-score; and GAGACTTA, with -0.0722 E-score.
Then AGGAGCGG, with -0.103 E-score; and CTTTAGAA, with -0.0545 E-score; and CTATGTAA, with 0.00293 E-score.
Then CCACACGG, with 0.00752 E-score; and AATCGGCC, with -0.129 E-score.
Turning to AAGTACAC, the binding signal is -0.0203 E-score.
Then GAGCATGC, with -0.00805 E-score.
With TACTGGAA, the binding signal is -0.0176 E-score.
Then GGACCGCA, with -0.0773 E-score.
For CGAACCGC the value was 0.0458 E-score; for GAGAAATC, -0.105 E-score.
For ACACACGG the value was 0.0263 E-score; for AATAATTG, -0.134 E-score; for CTTAGTGC, -0.126 E-score.
Regarding CTAGTCTA, the binding signal was -0.142 E-score.
Then CGCCCTAC, with -0.152 E-score.
For GCACATCA the value was -0.0753 E-score; for CCGTGAAC, -0.182 E-score.
Then ATCAGTAG, with 0.209 E-score; and CCTTGACG, with -0.144 E-score.
As for AGATTGCA, the binding signal was -0.0909 E-score.
For CAGGAAGA the value was 0.0107 E-score.
For AGCCGAGG the value was -0.0191 E-score.
Take CCAGTCCA: the binding signal was -0.141 E-score.
On to AATACGAA, for which the binding signal stood at 0.0999 E-score.
For ATACGACC the value was 0.309 E-score; for CAAACCAC, -0.0772 E-score; for TGTGGGAA, -0.151 E-score.
Regarding AAGATAGT, the binding signal is 0.105 E-score.
Then CGGAGTCA, with 0.0749 E-score; and AGCATCTA, with 0.0792 E-score.
For AGGGTAGG the value was 0.0483 E-score; for CTCATAAC, 0.0601 E-score; for ACATCCGG, 0.174 E-score.
As for GATTAAGC, the binding signal turned out to be 0.0202 E-score.
Turning to CCTCCACA, the binding signal is -0.0816 E-score.
For ACCCCGGC the value was 0.109 E-score.
Then GCATATTA, with 0.249 E-score; and AGAGCCGA, with 0.0149 E-score; and ATGCCGAG, with -0.136 E-score.
Then ACGGTTTG, with -0.0969 E-score; and CGCCAGAC, with 0.00184 E-score.
In the case of ACCGTACG, the binding signal was -0.118 E-score.
Take AACACTAG: the binding signal was 0.0262 E-score.
For GCAACTCC the value was -0.0982 E-score; for CGAACCAA, -0.169 E-score.
On to CAAAGGCG, for which the binding signal was -0.0566 E-score.
On to GTGCGAGA, for which the binding signal is -0.0214 E-score.
For AAAACGGA the value was -0.0442 E-score.
For ATCTACAG, the binding signal turned out to be 0.152 E-score.
As for CGATTGAC, the binding signal was -0.278 E-score.
For ACAAAGCT the value was -0.122 E-score.
For TGGCCAAA the value was -0.238 E-score; for TACGAATA, 0.118 E-score.
For AAAAACAG the value was -0.295 E-score; for ATTTACCG, 0.0707 E-score.
Turning to CTTACGGA, the binding signal stood at 0.0257 E-score.
For CACTCAAC the value was -0.0863 E-score; for CGGACTGA, -0.226 E-score.
Then GATACTAA, with 0.362 E-score; and CCAGTGGA, with -0.075 E-score.
Then GCTGTCAC, with 0.0479 E-score.
As for AGAGCTTA, the binding signal is -0.0942 E-score.
With ACAGCGTA, the binding signal was -0.055 E-score.
On to CAACTCGG, for which the binding signal was -0.133 E-score.
As to AGTGAGGG, the binding signal is -0.132 E-score.
Take ACCCCCTC: the binding signal is 0.0442 E-score.
For the sequence ATACTTGC, the binding signal is 0.215 E-score.
Then AGCGGGCA, with -0.183 E-score.
